# In PubChem BioAssay AID2782 (National Center for Advancing Translational Sciences (NCATS), 2010):
# Inconclusive results, whose numbers are uncertain, are shown with a selection of clear calls. A potency beside an inconclusive call is a rough fit, not a confirmed value. A note “side channel” means that the fit belongs to a control or component signal, not to the main read-out. The source made the active and inactive calls. The call rests on the fitted dose curve; in most records, active means well fitted inhibition curve with a large enough effect in the polarisation, with a control signal flat (not every such curve was filed as active); inconclusive means small, poorly fitted or top-dose-only effect, or effect the other way, or a change in a side signal; inactive means no such curve, though single readings can be large or run the other way; the % refers to the polarisation.
# Assay: Confirmation of Inhibitors Targeting the Menin-MLL Interaction in MLL Related Leukemias: Competition With Texas Red Labeled MLL-derived Mutant Peptide
# Conditions: fluorescence polarization, Texas Red MLL peptide displacement; series mostly up to 94.6 µM
# How it was run: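 Hits from the primary screen were retested: compounds were incubated 1 hr at ambient with 200 nM menin, 50 nM Texas Red mutant peptide and 25 nM fluorescein wild-type peptide (Tris pH 7.5, BSA-supplemented buffer), then fluorescence polarization was read.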
# Potency means the concentration at half of the fitted maximal effect; tags describe the fitted curve by direction and shape or compound fluorescence and quenching.
row,SMILES,Potency
1,COc1cc(OC)cc(C(=O)N/N=C/c2ccc(OC)c(COc3ccc4ccccc4c3)c2)c1,"inconclusive: 22.4 µM [inhibitor, full curve]"
2,Cc1ccc(F)c(C2C3C=CCC(C)C3C(=O)N2Cc2ccccc2)c1 (configuration not stated),"inconclusive: 25.1 µM [fluorescent, side channel, full curve]"
3,COc1ccccc1NS(=O)(=O)c1cc(N2Cc3ccccc3C2=N)ccc1N1CCOCC1,active: 50.1 µM
4,CCCN1CCN(CC(O)COC(c2ccc(OC)cc2)c2ccc(OC)cc2)CC1 (configuration not stated),"inconclusive: 56.4 µM [fluorescent, side channel, partial curve]"
5,CN1[C@H](CC(=O)c2ccccc2)CCC[C@H]1C[C@@H](O)c1ccccc1,inactive
6,Cc1cc(N/N=C/c2ccc(O)cc2)c2cccc(C)c2n1,active: 71 µM
7,Cc1cc2[nH]c3c(c[n+](C)c4ccccc34)c2cc1C,active: 56.4 µM
